Measurements taken from ChEMBL document CHEMBL1201862, “PubChem BioAssay data set” (2004).

Each compound was assayed on NCI-H322M (assay: NCI anticancer screen, dose series, 48 h).

Compound | GI50
O=C1CC(C(OCc2ccccc2)C(OCc2ccccc2)C(COCc2ccccc2)OCc2ccccc2)CC(=O)N1 (stereo unspecified) | inactive: > 75 µM
N#CC(c1ccccc1)N(CCc1ccccc1)C(=O)Oc1ccccc1 (stereo unspecified) | inactive: > 100 µM
CCc1cccc(C)c1NC(=O)CC1C(=O)Nc2ccccc2S1(=O)=O (stereo unspecified) | inactive: 19.1 µM
O=S(=O)(O)c1ccc2c(/N=N/c3ccc(S(=O)(=O)O)c4ccccc34)c(O)c(S(=O)(=O)O)cc2c1 | inactive: > 100 µM
CC1(C(=O)O)CCC[C@@]2(C)C1CC[C@@]1(C)c3cocc3CCC21 (stereo partly specified) | inactive: > 100 µM
CCOc1ccc(NC(=O)C(=O)C(/C(=N/N)C(=O)OC)c2nc3ccc([N+](=O)[O-])cc3nc2O)cc1 (stereo unspecified) | inactive: > 100 µM
COc1cc(C2C(C(=O)O)=C(CO)Oc3cc4c(cc32)OCO4)cc(OC)c1O (stereo unspecified) | inactive: > 100 µM
Cc1ccc(S(=O)(=O)N(CCN)c2cc3c4c(c2)Oc2cccc5c2C4c2c(cccc2O3)O5)cc1 | inactive: 31.9 µM
Nc1ncc(CN2CCCC2)c(-c2ccccc2O)n1 | inactive: > 750 µM
NC(=O)Cn1c(=O)oc2cc(C(=O)CN3CCOCC3)ccc21 | inactive: > 100 µM
C=CC1(c2ccc(OC)cc2)OCCCO1 | inactive: > 100 µM
COC(=O)c1cccc(C)c1C1CN=NC12Cc1c(ccc(C)c1C)C2=O (stereo unspecified) | inactive: 75.2 µM
Cc1ccc(NC(=S)SCCC(=O)O)cc1 | inactive: > 100 µM
CC(=O)NC1C(OCc2ccccc2)OC(CO)C(O)C1OCC(=O)N[C@@H](C)C(=O)N[C@H](CCC(=O)NCCCNc1ccc([N+](=O)[O-])c2[nH]c3ccccc3c(=O)c12)C(N)=O (stereo partly specified) | inactive: 45.6 µM
N=c1oc2cc(O)ccc2cc1C(=O)Nc1ccccn1 | inactive: > 100 µM
COc1ccc2c(c1)O[C@@H]1C(O)Oc3cc(OC)c(OC)cc3[C@]1(O)C2=O (stereo partly specified) | inactive: > 100 µM
COC(=O)C1=C(C)NC(=O)N2[C@@H](CCOCc3ccccc3)CC[C@@H]12 | inactive: > 50 µM
C#CC(O)/C=C/C(O)CCCC(O)CC#CC(O)C#CCCCCC(O)/C=C/CCCC(O)/C=C/CCCCCCCCCCCCCC(O)C(O)C#CC(=O)O (stereo unspecified) | inactive: > 25 µM
O=c1oc2ccc(Cl)cc2cc1-c1cn2ccsc2n1 | inactive: 54.8 µM
CN1CCC23c4ccccc4NC1C21CCN(C)C3Nc2ccccc21 | inactive: > 185 µM
CCCOc1ccc(/C=C/C2=[N+](CCO)CCO2)cc1 | inactive: > 100 µM
COc1cc(O)c(C(=O)CC(C)=O)c(OC)c1 | inactive: > 100 µM
O=C1/C(=C/c2cccc([N+](=O)[O-])c2)Cc2ccccc21 | inactive: > 100 µM

Compound | GI50
CCCCCCCCCCCCCCCCOCC(CCl)OP(=O)(O)OP(=O)(O)OCC1OC(n2ccc(N)nc2=O)C(O)C1O (stereo unspecified) | inactive: 59.7 µM
Cn1c(NC(=O)NC23CC4CC(CC(C4)C2)C3)nc2ccccc21 | inactive: 88.7 µM
O=C1COc2cc(N3CCN(c4cccc(C(F)(F)F)c4)CC3)ccc2N1 | inactive: > 100 µM
Cc1ccccc1/N=N/C(C(=O)c1ccccc1)C(=O)c1ccccc1 | inactive: 32.2 µM
O=c1c2ccccc2nc(-c2ccccc2)n1NCC1(O)OCC(O)C(O)C1O (stereo unspecified) | inactive: > 100 µM
CC(C)CNc1nc(N)nc(O)c1NC=O | inactive: > 100 µM
O=C1C=CN(C2OC(CO)C(O)C2O)C(=O)C1 (stereo unspecified) | inactive: 231 µM
C/C=C(\C)CC/C=C/CO[Si](C)(C)C(C)(C)C | inactive: > 100 µM
C=C1C(O)C23CCC4C(C(=O)O)(C(=O)O)CC(OC5OC(CO)C(O)C(OC(=O)CCc6ccccc6)C5NC(=O)CC(C)C)CC4(C)C2CCC1(O)C3 (stereo unspecified) | inactive: > 100 µM
CNC(=O)OCC1=C(COC(=O)NC)CN(c2ccccc2)C1 | inactive: > 100 µM
N#CC1(C2CC(=O)N(c3ccccc3)C2=O)CCCCC1=O (stereo unspecified) | inactive: > 100 µM
CC(=O)O[C@@H]1CC2[C@@H](CCC3Cc4nc5c(nc4C[C@@]32C)CC2CC[C@@H]3C(CC[C@@]4(C)C3CC[C@@H]4C(C)CCCC(C)C)[C@@]2(C)C5)C2C[C@@H]3OC4(CCC(C)CO4)C(C)[C@@H]3[C@]21C (stereo partly specified) | inactive: > 100 µM
O=C(CN1CCCCC1)c1ccc2[nH]c(=O)oc2c1 | inactive: > 100 µM
Cc1ccc(-c2nc3n(c2/C=N\N=C(N)N)CCS3)cc1 | inactive: 17.1 µM
CC(=O)Oc1c2c(c(CC=C(C)C)c3c1C(=O)C1=C[C@@H]4CC5C(C)(C)OC(C/C=C(/C)C(=O)O)(C4=O)[C@@]15O3)OC(C)(CCC=C(C)C)C=C2 (stereo partly specified) | active: 0.469 µM
Cc1ccc(S(=O)(=O)OCCn2cnc3nc(NC(=O)c4ccccc4)[nH]c(=O)c32)cc1 | inactive: > 100 µM
CN1C(=N\S(=O)(=O)c2ccc(Cl)cc2)/C(=N/N=P(c2ccccc2)(c2ccccc2)c2ccccc2)c2ccccc21 | inactive: > 100 µM
NC(=S)N/N=C/c1nccc2ccccc12 | active: 0.678 µM
O=CNc1ccccc1OCCOc1ccccc1NC=O | inactive: > 100 µM
CC[C@@]1(O)C(=O)OCc2c1cc1n(c2=O)Cc2cc3c(N)cccc3nc2-1 [9-AMINOCAMPTOTHECIN] | active: 0.104 µM
COc1cc(Cc2cnc(N)nc2N)cc(OC)c1OCCCNc1ccc([N+](=O)[O-])cc1 | inactive: 19.1 µM
CCn1c(=O)c2ccccc2n2c(=O)c3cc4ccccc4cc3nc12 | inactive: > 100 µM
Cn1ccnc1SC(F)(F)c1nc2ccccc2o1 | inactive: > 100 µM

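Five concentrations, 48 hours, 96-well plates. GI50 marks 50% less growth.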 Calls of active or inactive are those of the source. No stated cut-off is given here; in the data, active = GI50 up to about 1.1 µM and inactive = higher.
